Measurements taken from the supplement of paper PMC3656093.
± gives the standard deviation of the averaged measurements. Over roughly 1,900 compounds, “CD40L-induced NF-kB luciferase activity, plate-corrected, relative to DMSO (0) and IKK inhibitor VII (-100) controls” has its median near 0.032; the lowest 2% begin near -26. This is one part of the list.

What follows are compounds tested on BL2-NFkB-Luc (assay: CD40L-induced NF-kB luciferase activity, plate-corrected, relative to DMSO (0) and IKK inhibitor VII (-100) controls (% normalized activity); higher = more NF-kB reporter activity (less inhibition)). Settings: 9.4 µM; stimulus: tCD40L 64 ng/ml; 4.5 h.
Experimental: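 BL2 B cells with a stable NF-kB response-element luciferase reporter (BL2-NFkB-Luc), 384-well. Cells were pre-incubated with compound at 9.4 uM for 1 h at 37 C, then stimulated with 64 ng/ml trimerized CD40L for 4.5 h; luciferase was read with Steady-Glo. Signal was normalised per plate in Genedata (median DMSO neutral control = 0, median IKK inhibitor VII at 50 uM = -100) with Assay Median plate-pattern correction; duplicate plates.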

| Structure (SMILES) | CD40L-induced NF-kB luciferase activity |
| --- | --- |
| Cc1ccc(C(=O)COC(=O)c2cccc(N3C(=O)c4c(C)nc5ccccc5c4C3=O)c2)cc1C | 2.73 ± 3.2 |
| CC1(C#CC[N+]2(C)CCCCC2)CCC2C(O1)c1ccccc1OC2(C)C (configuration not stated) | -4.46 ± 3 |
| NC(=O)OCC(COC(N)=O)c1ccccc1 | 2.1 ± 3.7 |
| Cc1c(OCC(=O)NC(Cc2c[nH]c3ccc(O)cc23)C(=O)O)ccc2c3c(c(=O)oc12)CCC3 (configuration not stated) | 2.12 ± 6.2 |
| Cc1ccnc(NS(=O)(=O)c2ccc(N)cc2)n1 | 1.17 ± 1.4 |
| CC(=O)NC(CC(C)C)C(=O)NC(Cc1ccccc1)C(N)=O (configuration not stated) | 0.423 ± 0.34 |
| Cc1cccc(OCC(=O)Nc2ccc(C(=O)NCC(C)C)cc2)c1 | -7.06 ± 0.13 |
| COc1ccc(C(=O)CCN2CCc3cc(OC)c(OC)cc3C2)cc1 | -8.3 ± 0.46 |
| COc1cc(CC(=O)NCCc2ccc(S(N)(=O)=O)cc2)cc(OC)c1OC | -2.35 ± 3.9 |
| Cc1cc(OC(=O)CNC(=O)OC(C)(C)C)c2c(C)cc(=O)oc2c1 | 7.29 ± 0.78 |
| O=C(NCCN1CCOCC1)c1ccc(Cl)cc1 | -15.2 ± 24 |
| Cc1cccc2c(=O)n3c(nc12)CCCCC3 | 5.05 ± 2.7 |
| CC(=O)CCCCn1c(=O)c2c(ncn2C)n(C)c1=O | -7.18 ± 11 |
| O=C1CCCN1CCCn1cnc2c([nH]c3ccc(F)cc32)c1=O | 3.33 ± 4.4 |
| O=C(CCCN1C(=O)/C(=C\c2cccs2)SC1=S)Nc1ccccn1 | -2.54 ± 1.1 |
| O=C(O)CCn1cnc2ccccc2c1=O | 1.38 ± 2.2 |
| CC(=O)N(CCC1(c2ccc(C)cc2)CCOC(C(C)C)C1)Cc1ccco1 (configuration not stated) | 5.98 ± 0.67 |
| O=C(Oc1ccccc1)Oc1ccc2c(c1)oc(=O)c1ccccc12 | 15.2 ± 4 |
| Cc1nc(N[C@@H](Cc2c[nH]c3ccccc23)C(=O)O)c2oc3ccccc3c2n1 | 4.71 ± 0.71 |

| Structure (SMILES) | CD40L-induced NF-kB luciferase activity |
| --- | --- |
| CCOC(=O)N1CCc2[nH]c3ccc(C)cc3c2C1 | -8.34 ± 0.66 |
| Oc1ccc(Oc2ncc(Cl)cc2Cl)cc1 | -7.9 ± 14 |
| CCCCCC(=O)O[C@]1(C(C)=O)CC[C@H]2[C@@H]3CCC4=CC(=O)CC[C@]4(C)[C@H]3CC[C@@]21C | -8.91 ± 0.8 |
| O=c1c2[nH]c3ccccc3c2ncn1CCC1=CCCCC1 | -1.06 ± 0.11 |
| Cc1ccccc1NC(=O)NCCc1c[nH]c2ccccc12 | -1.3 ± 2.4 |
| CC(=O)OCC(=O)[C@@]1(O)[C@H](C)C[C@H]2[C@@H]3CCC4=CC(=O)C=C[C@]4(C)[C@@]3(F)[C@@H](O)C[C@@]21C | -27.6 ± 1 |
| Cn1cnc2c1c(=O)n(CC(O)CO)c(=O)n2C (configuration not stated) | 0.304 ± 4.1 |
| CC1(C)OC2OC(C(=O)NN=Cc3ccccc3F)C3OC(C)(C)OC3C2O1 (configuration not stated) | -1.17 ± 0.32 |
| CCC12CN3CC(CC)(CN(C1)C31C(=O)N(C)c3ccc(C)cc31)C2=O (configuration not stated) | -6 ± 8.1 |
| COc1cc2c(cc1OC)C(c1ccccc1)=NCC2 | 0.447 ± 0.87 |
| CCOCCn1c(C(C)O)nc2ccccc21 (configuration not stated) | 1.75 ± 7 |
| Cc1occc(=O)c1O | -3.22 ± 1.7 |
| C#C[C@]1(O)CC[C@H]2[C@@H]3CCc4cc(O)ccc4[C@H]3CC[C@@]21C | -7.46 ± 6.8 |
| O=C(O)c1ccc(OCCn2ccnc2)cc1 | 2.76 ± 1.1 |
| Cc1ccc(S(=O)(=O)Oc2ccccc2C=NN=C(N)N)cc1 | -1.88 ± 1.6 |
| CC(C(=O)O)c1cccc(C(=O)c2ccccc2)c1 (configuration not stated) | 3.92 ± 1.4 |
| Cc1oc2cc(O)cc(O)c2c(=O)c1-c1ccc2c(c1)OCCCO2 | 22.9 ± 3 |
| COc1ccc(C(=O)NCCC2=CCCCC2)cc1[N+](=O)[O-] | 8.23 ± 1.4 |
| COc1cc(SC)ccc1C(=O)NC(C)C | 0.373 ± 2.3 |

| Structure (SMILES) | CD40L-induced NF-kB luciferase activity |
| --- | --- |
| CCOC(=O)c1ncn2c1CN(C)C(=O)c1cc(F)ccc1-2 | -5.59 ± 1.8 |
| CC(=O)N1CCN2C(=O)C1CCCC(=O)c1cc(C(C)C)ccc12 (configuration not stated) | 4.18 ± 2.8 |
| CCCC1O[C@@H]2C[C@H]3[C@@H]4CCC5=CC(=O)C=C[C@]5(C)[C@H]4[C@@H](O)C[C@]3(C)[C@]2(C(=O)CO)O1 (some centres not stated) | -26 ± 0.65 |
| CC1(C)Cc2nc3oc4c(NCc5ccccc5)ncnc4c3cc2CO1 | 2 ± 2.6 |
| O=C(CNC(=O)OCc1ccccc1)Oc1cc2oc(=O)cc(-c3ccccc3)c2cc1Cl | -6.69 ± 1.5 |
| Cc1ccccc1NC(=O)c1c(C)cc(=O)oc1C | -17.1 ± 22 |
| Cc1ccc([N+](=O)[O-])cc1NC1OC(CO)C(O)C1O (configuration not stated) | -9.75 ± 8.3 |
| Cc1cc(NS(=O)(=O)c2ccc(N)cc2)no1 | 0.679 ± 6.3 |
| COc1cc(NC(=O)N[C@@H](Cc2ccccc2)C(=O)O)cc(OC)c1 | 0.704 ± 4.7 |
| CCNC(=O)c1sc2cc(C)ccc2c1Cl | 58.4 ± 4.3 |
| NS(=O)(=O)c1cc2c(cc1Cl)NC(CSCc1ccccc1)=NS2(=O)=O | 0.586 ± 0.24 |
| Cn1c2ccc(CC(=O)O)cc2c2cc(CC(=O)O)ccc21 | 3.71 ± 0.098 |
| OCC1(CCOc2ccccc2)CCN(CCCn2cccn2)CC1 | -3.68 ± 2.7 |
| CC1(C)S[C@@H]2[C@H](NC(=O)C(C(=O)O)c3ccccc3)C(=O)N2[C@H]1C(=O)O (some centres not stated) | -4.22 ± 1.9 |
| CC(=O)[C@@]1(O)CC[C@H]2[C@@H]3C[C@H](C)C4=CC(=O)CC[C@]4(C)[C@H]3CC[C@@]21C | -15.7 ± 2.4 |
| CC(C)=CCC(C)(C)C=NNC(N)=O | -1.56 ± 2.4 |
| Cc1ccc2nc(NC3=NC(CC(=O)O)C(=O)N3)nc(C)c2c1 (configuration not stated) | -4.76 ± 0.3 |
| COc1ccc2[nH]c3c(c2c1)CCn1c-3nc2ccccc2c1=O | 32.3 ± 4.5 |
| COc1cc2c(cc1OC)C(C)=NC1(CCCCC1)C2 | -5.39 ± 1.2 |
